Data published in article PMC4336329 (PLoS ONE, 2015).
About 2,200 (0.71%) of roughly 310,000 compounds showed an effect of 50% or more. Effects have a minus sign here. Some of the results follow.

target: human ether-à-go-go-related gene (hERG) potassium channel (human, UniProt Q12809); assay: primary screen, population patch clamp on CHO cells stably expressing hERG
Sequence (Q12809 whole entry, looked up): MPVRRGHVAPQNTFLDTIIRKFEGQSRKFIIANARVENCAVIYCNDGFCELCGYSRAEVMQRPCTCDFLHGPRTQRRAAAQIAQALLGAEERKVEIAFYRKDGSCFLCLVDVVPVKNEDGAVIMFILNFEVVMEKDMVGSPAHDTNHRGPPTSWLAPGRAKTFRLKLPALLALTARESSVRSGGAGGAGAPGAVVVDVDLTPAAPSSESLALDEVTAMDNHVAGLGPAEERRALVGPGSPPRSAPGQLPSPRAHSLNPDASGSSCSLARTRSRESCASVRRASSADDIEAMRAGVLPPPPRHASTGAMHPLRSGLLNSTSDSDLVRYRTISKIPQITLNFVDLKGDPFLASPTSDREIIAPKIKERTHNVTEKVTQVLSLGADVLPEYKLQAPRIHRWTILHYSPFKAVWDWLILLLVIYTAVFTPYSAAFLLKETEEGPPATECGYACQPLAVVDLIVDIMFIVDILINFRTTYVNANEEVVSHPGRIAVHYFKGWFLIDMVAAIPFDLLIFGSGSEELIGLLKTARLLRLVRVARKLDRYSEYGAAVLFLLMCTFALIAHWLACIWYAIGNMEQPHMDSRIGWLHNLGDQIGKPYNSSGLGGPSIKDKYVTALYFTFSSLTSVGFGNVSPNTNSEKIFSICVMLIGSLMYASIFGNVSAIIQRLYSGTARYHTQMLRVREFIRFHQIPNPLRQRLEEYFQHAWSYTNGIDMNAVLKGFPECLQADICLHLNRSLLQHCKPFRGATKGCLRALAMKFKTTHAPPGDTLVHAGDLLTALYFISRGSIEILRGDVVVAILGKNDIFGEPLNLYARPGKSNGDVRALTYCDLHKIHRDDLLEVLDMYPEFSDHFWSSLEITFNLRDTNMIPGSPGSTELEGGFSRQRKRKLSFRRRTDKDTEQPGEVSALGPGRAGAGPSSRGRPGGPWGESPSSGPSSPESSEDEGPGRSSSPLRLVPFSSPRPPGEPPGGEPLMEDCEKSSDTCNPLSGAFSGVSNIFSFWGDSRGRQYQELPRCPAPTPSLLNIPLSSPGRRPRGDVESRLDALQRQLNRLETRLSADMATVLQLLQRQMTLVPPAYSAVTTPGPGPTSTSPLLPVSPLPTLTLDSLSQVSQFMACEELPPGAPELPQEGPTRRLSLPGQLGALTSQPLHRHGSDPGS

SMILES	hERG current change (%, negative = inhibition) at 1uM
O=C(Nc1cccc(NC(=O)c2cccc(Cl)c2)c1)c1cccnc1	2.06%
O=C(NNc1ccc(C(F)(F)F)cc1[N+](=O)[O-])c1ccc(NS(=O)(=O)c2ccc(F)cc2)cc1	11.5%
Cc1ccc(N2C(=O)c3ccccc3C2Nc2ccccc2)nc1 (stereo not shown)	5.85%
Cc1noc(NS(=O)(=O)c2ccc(NC(=O)c3cnc4n(c3=O)CCS4)cc2)c1C	6.52%
COc1cc2c(cc1OC)CN(C(=O)CSc1nc(N)c(C#N)cc1C#N)CC2	4.26%
O=C(CCCCCn1c(=O)[nH]c2ccsc2c1=O)NCc1cccs1	5.07%
CN1CCCN(C(=O)COc2ccc(Br)cc2)CC1	16.3%
Cc1ccc(C(=O)CN(C(=O)c2ccc(Cl)cc2)N2C(=O)CCC2=O)cc1	-6.85%
CC(Oc1cccnc1[N+](=O)[O-])C(=O)Nc1cccc(Cl)c1 (stereo not shown)	14.3%
Cc1nc(SCC(=O)Nc2cc(C)on2)c2c(C)c(C)sc2n1	6.61%
CCN1C/C(=C/c2cccc([N+](=O)[O-])c2)C(=O)/C(=C/c2cccc([N+](=O)[O-])c2)C1	4.03%
COc1ccc(N2CCN(C(=O)c3ccc(F)cc3)CC2)c([N+](=O)[O-])c1	-38.3%
Cc1cccc(OCC(=O)Nc2ccc3c(c2)nc(CCN2CCC(C)CC2)n3C)c1	-47.9%
COc1ccc(C(=O)C(Cc2ccccc2)N(C)C)cc1 (stereo not shown)	-7.24%
COc1cccc(/C=N/c2nc3ccccc3[nH]2)c1O	17%
O=C(COc1coc(CN2CCN(c3ccccc3F)CC2)cc1=O)NC1CCCC1	3.4%
CC1Sc2ccc(C(=O)NCc3ccccn3)cc2NC1=O (stereo not shown)	3.23%
O=C(Cn1cnnn1)Nc1cccc(S(=O)(=O)N2CCCCC2)c1	9.73%
C=CCCC(=O)NC1CC(C)(C)Cc2c1cnn2-c1ccc(OC)cc1 (stereo not shown)	0.46%
CC(=O)c1ccc(OC(C)C(=O)NC2CCCCC2C)cc1 (stereo not shown)	3.87%
CC(C)(C)c1nc2scc(-c3ccc(Cl)cc3)c2c(=O)o1	13.5%
NS(=O)(=O)c1ccc(NC(=O)/C(=C/c2ccncc2)NC(=O)c2ccccc2)cc1	17.6%

SMILES	hERG current change (%, negative = inhibition) at 1uM
COC(=O)CCCC(=O)NC(C)c1cnn(-c2ccccc2C)c1C (stereo not shown)	-3.54%
COc1ccc(C(=O)NNC(=O)C23CC4CC(CC(C4)C2)C3)cc1OC	1.28%
COc1cccc(/C=N/NC(=O)c2ccccc2)c1OS(=O)(=O)c1ccccc1	1.32%
Cc1ccc(S(=O)(=O)N2[C@@H](c3ccc(F)cc3)C(C(=O)O)=CC[C@H]2c2cccc(Cl)c2)cc1	3.21%
Cc1nc2ccccc2c2c1C(=O)N(Cc1cccnc1)C2=O	-1.81%
O=c1oc2ccccc2cc1-c1csc(Cc2nc(-c3ccc(Cl)cc3)cs2)n1	20.6%
Cc1cnc(NC(=O)CSc2nnc(-c3ccccc3)o2)s1	3.08%
CC(C)CN(C(=O)CN1CCOCC1)c1c(N)n(CC(C)C)c(=O)[nH]c1=O	15.4%
COc1cccc(C2CC(c3ccc(C)cc3)Nc3nc(N)nn32)c1 (stereo not shown)	2.22%
COc1cc2c(cc1NC(=O)COC(=O)/C=C/c1ccc([N+](=O)[O-])cc1)oc1ccccc12	-1.76%
COc1cc(CN2CCCCCC2)cc(OC)c1OC.O=C(O)C(=O)O	14.9%
Cc1cc2n(c(=O)c1C#N)CCCN2c1cccc(Cl)c1	-28%
O=C(NC1CC1)C1CCCN1S(=O)(=O)c1ccc2ccccc2c1 (stereo not shown)	10.7%
CCc1nc2cc(CC(=O)O)ccc2o1	15.9%
CCOC(=O)c1ccc(N2C(=O)C3C(/C=C/c4ccccc4)OC4(C(=O)c5ccccc5C4=O)C3C2=O)cc1 (stereo not shown)	17.5%
O=C(OCn1ncc(Br)c(Br)c1=O)c1ccc(F)cc1	3.04%
S=c1nc2c(n[nH]1)c1ccccc1n2CCc1ccccc1	14.2%
CCOc1ccc(-n2ccnc2SCC(=O)NCc2ccc3c(c2)OCO3)cc1	-5.32%
CCN(CC)c1ccc(/C=N/NC(=O)c2ccc3nc[nH]c3c2)c(O)c1	23.6%
COc1ccc(NC(=O)CN2CCN(c3ccccn3)CC2)cc1Cl	8.62%
COc1ccc(S(=O)(=O)Nc2cccc3ccc(O)cc23)cc1	4.41%
